Results taken from the supplement of paper PMC4967469.

Assays:
Assay in all cases: Viability of human cancer cell lines after 72 h of drug (GDSC screen)
BMS-536924 = compound: Cc1cc(N2CCOCC2)cc2[nH]c(-c3c(NC[C@@H](O)c4cccc(Cl)c4)cc[nH]c3=O)nc12 [BMS-536924]
Procedure: (§1)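 Human cancer cell lines in 384-well plates, medium with 10% serum, drug for 72 h over a 256-fold dose range (nine 2-fold or five 4-fold steps up to the top dose). Adherent lines were fixed and stained with the nucleic acid dye Syto60, suspension lines read with resazurin; signal relative to control wells, capped at 0 and 100%. One two-parameter sigmoid per drug and line, fitted in a mixed model over all curves with the slope shared within a line.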

BIRB 0796 = compound: Cc1ccc(-n2nc(C(C)(C)C)cc2NC(=O)Nc2ccc(OCCN3CCOCC3)c3ccccc23)cc1 [BIRB 0796]; conditions: top dose 10 µM; top dose inferred
Procedure: as §1

SB-525334 = compound: Cc1cccc(-c2[nH]c(C(C)(C)C)nc2-c2ccc3nccnc3c2)n1 [SB-525334]; conditions: top dose 20 µM; top dose inferred
Procedure: as §1

HG-5-113-01 = compound: CNC(=O)c1ccc(Nc2cc(Nc3ccccc3S(=O)(=O)C(C)C)c3cc[nH]c3n2)nc1 [HG-5-113-01]; conditions: top dose 10 µM; top dose inferred
Procedure: as §1

Olaparib = compound: O=C(c1cc(Cc2n[nH]c(=O)c3ccccc23)ccc1F)N1CCN(C(=O)C2CC2)CC1 [Olaparib]
Procedure: as §1

A-770041 = compound: COc1cc(-c2nn([C@H]3CC[C@H](N4CCN(C(C)=O)CC4)CC3)c3ncnc(N)c23)ccc1NC(=O)c1cc2ccccc2n1C [A-770041]; conditions: top dose 5.12 µM; top dose inferred
Procedure: as §1

Shikonin = compound: CC(C)=CC[C@@H](O)C1=CC(=O)c2c(O)ccc(O)c2C1=O [Shikonin]; conditions: top dose 16 µM; top dose inferred
Procedure: as §1

CGP-082996 (CINK4) = compound: CCNc1cc(NC2CCC(O)CC2)nc(Nc2ccc3c(ccn3Cc3ccccc3)c2)n1 [CGP-082996 (CINK4)]; conditions: top dose 5.12 µM; top dose inferred
Procedure: as §1

VX-702 = compound: NC(=O)c1ccc(N(C(N)=O)c2c(F)cccc2F)nc1-c1ccc(F)cc1F [VX-702]; conditions: top dose 2 µM; top dose inferred
Procedure: as §1

Wee1 inhibitor 681640 = compound: O=C1NC(=O)c2c1c(-c1ccccc1Cl)cc1[nH]c3ccc(O)cc3c21 [Wee1 inhibitor 681640]; conditions: top dose 2 µM; top dose inferred
Procedure: as §1

XMD8-85 = compound: COc1cc(N2CCN(C)CC2)ccc1Nc1ncc2c(n1)N(C)c1ccccc1C(=O)N2C [XMD8-85]; conditions: top dose 8 µM; top dose inferred
Procedure: as §1

[1] = top dose 4 µM, screen: GDSC drug entry 1091, top dose inferred
[2] = top dose 5.12 µM, screen: GDSC drug entry 62
[3] = top dose 5 µM, screen: GDSC drug entry 1017, top dose inferred
[4] = top dose 10 µM, screen: GDSC drug entry 1495

| Cell Line | AUC (BMS-536924; [1]) | IC50 (BMS-536924; [1]) [µM] | AUC (BMS-536924; [2]) | IC50 (BMS-536924; [2]) [µM] | AUC (BIRB 0796) | IC50 (BIRB 0796) [µM] | AUC (SB-525334) | IC50 (SB-525334) [µM] | AUC (HG-5-113-01) | IC50 (HG-5-113-01) [µM] | AUC (Olaparib; [3]) | IC50 (Olaparib; [3]) [µM] | AUC (Olaparib; [4]) | IC50 (Olaparib; [4]) [µM] | AUC (A-770041) | IC50 (A-770041) [µM] | AUC (Shikonin) | IC50 (Shikonin) [µM] | AUC (CGP-082996 (CINK4)) | IC50 (CGP-082996 (CINK4)) [µM] | AUC (VX-702) | IC50 (VX-702) [µM] | AUC (Wee1 inhibitor 681640) | IC50 (Wee1 inhibitor 681640) [µM] | AUC (XMD8-85) | IC50 (XMD8-85) [µM] |
| --- | --- | --- | --- | --- | --- | --- | --- | --- | --- | --- | --- | --- | --- | --- | --- | --- | --- | --- | --- | --- | --- | --- | --- | --- | --- | --- |
| NCI-H1155 (large cell lung carcinoma, suspension) | 0.993 | > 4 | 0.975 | > 5.12 | 0.981 | > 10 | 0.918 | > 20 | 0.791 | 3.64 | 0.97 | > 5 | 0.979 | > 10 | 0.984 | > 5.12 | 0.896 | 13.4 | 0.985 | > 5.12 | 0.984 | > 2 | 0.979 | > 2 | 0.979 | > 8 |
| NCI-H1304 (small cell lung carcinoma, suspension) | 0.917 | > 4 | 0.988 | > 5.12 | 0.956 | > 10 | 0.98 | > 20 | 0.846 | 8.2 | 0.982 | > 5 | 0.986 | > 10 | 0.96 | > 5.12 | 0.867 | > 16 | 0.984 | > 5.12 | 0.983 | > 2 | 0.97 | > 2 | 0.939 | > 8 |
| NCI-H1395 (lung adenocarcinoma, adherent) | 0.946 | > 4 | 0.979 | > 5.12 | 0.931 | > 10 | 0.969 | > 20 | 0.877 | > 10 | 0.97 | > 5 | 0.875 | > 10 | 0.899 | > 5.12 | 0.903 | > 16 | 0.925 | > 5.12 | 0.962 | > 2 | 0.974 | > 2 | 0.945 | > 8 |
| NCI-H1436 (small cell lung carcinoma, suspension) | 0.984 | > 4 | 0.924 | > 5.12 | 0.932 | > 10 | 0.931 | > 20 | 0.81 | 6.18 | 0.983 | > 5 | 0.98 | > 10 | 0.788 | 2.6 | 0.414 | 0.561 | 0.983 | > 5.12 | 0.962 | > 2 | 0.975 | > 2 | 0.981 | > 8 |
| NCI-H1694 (small cell lung carcinoma, suspension) | 0.959 | > 4 | 0.952 | > 5.12 | 0.98 | > 10 | 0.959 | > 20 | 0.884 | > 10 | 0.988 | > 5 | 0.983 | > 10 | 0.983 | > 5.12 | 0.48 | 0.885 | 0.984 | > 5.12 | 0.988 | > 2 | 0.964 | > 2 | 0.958 | > 8 |
| NCI-H1770 (non-small cell lung carcinoma, suspension) | 0.968 | > 4 | 0.869 | 3.76 | 0.989 | > 10 | 0.98 | > 20 | 0.866 | 7.16 | 0.992 | > 5 | 0.985 | > 10 | 0.964 | > 5.12 | 0.237 | 0.196 | 0.91 | > 5.12 | 0.989 | > 2 | 0.992 | > 2 | 0.79 | 3.09 |
| NCI-H1876 (small cell lung carcinoma, adherent) | 0.871 | 3.83 | 0.9 | > 5.12 | 0.982 | > 10 | 0.937 | > 20 | 0.859 | 8.47 | 0.854 | 4.01 | 0.832 | 6.49 | 0.973 | > 5.12 | 0.758 | 5.61 | 0.987 | > 5.12 | 0.984 | > 2 | 0.964 | > 2 | 0.937 | > 8 |
| NCI-H2141 (small cell lung carcinoma, suspension) | 0.99 | > 4 | 0.869 | 4.51 | 0.979 | > 10 | 0.966 | > 20 | 0.917 | > 10 | 0.99 | > 5 | 0.99 | > 10 | 0.937 | > 5.12 | 0.589 | 1.74 | 0.969 | > 5.12 | 0.99 | > 2 | 0.981 | > 2 | 0.979 | > 8 |
| NCI-SNU-5 (stomach, suspension) | 0.988 | > 4 | 0.983 | > 5.12 | 0.985 | > 10 | 0.989 | > 20 | 0.985 | > 10 | 0.985 | > 5 | 0.976 | > 10 | 0.986 | > 5.12 | 0.644 | 2.51 | 0.987 | > 5.12 | 0.975 | > 2 | 0.986 | > 2 | 0.973 | > 8 |

By IC50 is meant the dose at which the fit gives 50% viability; fits outside the tested doses are given as limits. AUC, from the same fit, is the share of area under the viability curve across the 256-fold dose range: 1 means no effect, lower means more sensitive. Any top dose called inferred was derived from the fitted curves, not read from the paper. For part of these data: An entry number marks a drug with two screens in the source, which often give different values.
